# “And” between values parts separate entries of the source, which are not always exact repeats. Equal entries are not always repeated. Screen size: about 420,000 compounds; about 50,000 (12%) were called active. This list was built around the results that the source calls inconclusive (neither active nor inactive); the mix of calls is not that of the screen. The call rests on the fitted dose curve; in most records, active means well fitted inhibition curve with a large enough effect; inconclusive means small, poorly fitted or top-dose-only effect; inactive means flat fitted curve, though single readings scatter. No potency is given beside an inconclusive call; the fits are too rough.
# Experiment: qHTS for Inhibitors of human tyrosyl-DNA phosphodiesterase 1 (TDP1): qHTS in cells in presence of CPT; further: nearly all actives have a fitted effect of over 55% in size
# Settings: chicken DT40 Tdp1-/-;hTDP1 cells + 20 nM CPT, ATP luminescence, 48 h; activity change, negative = growth inhibition: at 46.2 µM (top of the series) unless noted
# Procedure, shortened: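 Chicken DT40 Tdp1-/- cells stably complemented with human TDP1 were seeded at 400 cells/well in medium containing 20 nM camptothecin, exposed to pin-transferred compounds, and grown at 37 °C for at least 48 hr. Viability was read as ATP luminescence.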
# On the % scale 0 is the no-effect control and ±100 the full control effect; potency means the concentration at half of the fitted maximal effect; tags describe the fitted curve by direction and shape.
SMILES,Potency,"activity change, negative = growth inhibition"
Cc1[nH]c(=O)sc1C(=O)NCc1ccc([N+](=O)[O-])cc1,"inconclusive [inhibitor, single point]",–
Cc1cc(Cl)ccc1OCC(=O)N(Cc1cccs1)C1CCS(=O)(=O)C1 (configuration not stated),"inconclusive [inhibitor, single point]",–
CCOc1ccc(OCCC(=O)N(CCCOC)c2c(N)n(Cc3ccccc3)c(=O)[nH]c2=O)cc1,–,inactive: 15.6%
O=C(Nc1ccc(Cl)cc1)c1ccc2c(c1)N(Cc1ccccc1)CCS2,active: 14.6 µM,–
Cc1ccc(-c2nn3c(C)nnc3s2)cc1NC(=O)CSc1ccc(Cl)cc1,"inconclusive [inhibitor, single point]",–
O=C(c1cc(S(=O)(=O)N2CCCC2)c(Cl)cc1Cl)N1CCCC1,–,inactive: 0.37%
CN(C)CCCN(C(=O)c1ccc2c(c1)CCCC2)c1nc2cc3c(cc2s1)OCO3,"inconclusive [inhibitor, single point]",–
COc1cc(C=NO)nc(-c2ccccn2)c1,active: 1.3 µM,–
CC(C)c1ccc(NC(=O)CN2C(=O)C3(SCC(=O)N3c3ccc(F)cc3)c3ccccc32)cc1 (configuration not stated),"inconclusive [inhibitor, single point]",–
Cc1cccc(C(=O)N[C@H]2CC[C@@H](n3cc(C(=O)N4CCCC4)nn3)CC2)c1,–,inactive: 23% [at 9.04 µM]
Cc1ccc(N2CCn3c2nc2c3c(=O)n(Cc3cccc(Cl)c3)c(=O)n2C)cc1C,"inconclusive [inhibitor, partial curve, poor fit]",–
O=C(CSc1n[nH]c(-c2ccncc2)n1)NCCc1ccccc1,"inconclusive [inhibitor, partial curve]",–
O=C1CCCN=C(Nc2ccc(F)c(Cl)c2)S1,–,inactive: -4.28%
COc1ccc(-c2ccc(OC)c([C@H]3[C@H]4C=CC[C@@H](C)[C@@H]4C(=O)N3Cc3ccccc3)c2)cc1OC,"inconclusive [inhibitor, partial curve, poor fit]",–
Cc1ccc(C(=O)NCc2ccc(Cl)cc2)cc1S(=O)(=O)N1CCCCC1,"inconclusive [inhibitor, partial curve, poor fit]",–
COc1ccc(C(=O)NNC(=O)C(NC(=O)c2cc(OC)cc(OC)c2)C(C)C)cc1 (configuration not stated),–,inactive: 18.8%
CCC(C)Sc1cccc(-c2nc3ccc(C)cn3c2NCc2ccccc2)c1 (configuration not stated),active: 20.6 µM and active: 16.4 µM,–
Cc1ccc(S(=O)(=O)N[C@H](C(=O)NCC2CCC(C(=O)O)CC2)C(C)C)cc1 (some centres not stated),–,inactive: 10.7%
CCCOc1ccc(CC2C(=O)Nc3ccc(Br)cc32)cc1 (configuration not stated),"inconclusive [inhibitor, single point]",–
Cc1ccc(S(=O)(=O)N2C[C@@H]3[C@H]4CC[C@H](C4)[C@@H]3[C@@H](C)[C@H]2C#N)cc1,active: 20.6 µM,–
O=C(Cn1nnc(-c2ccccc2)n1)N/N=C/c1cccc([N+](=O)[O-])c1,–,inactive: -9.88%
COc1ccc(-n2c(=S)[nH]c3ccccc3c2=S)cc1,–,inactive: -22.5%
CCCC12CN3CC(CCC)(CN(C1)C3c1c[nH]c3ccc(OC)cc13)C2=O (configuration not stated),active: 18.4 µM,–
COc1ccc(C(=O)NC2CC2)cc1OC1CCN(Cc2cc(C)cc(C)c2)CC1,"inconclusive [inhibitor, single point]",–

SMILES,Potency,"activity change, negative = growth inhibition"
O=C(CN1C(=O)CCSc2ccc(S(=O)(=O)N3CCCC3)cc21)Nc1ccccc1Cl,"inconclusive [inhibitor, single point]",–
CN1C[C@@H]2C(c3ccc(C(F)(F)F)cc3)C3(c4ccccc4)CC2(C3)[C@H]1c1ccccc1 (some centres not stated),"inconclusive [inhibitor, single point]",–
COc1cc(/C=C/C(=O)O)cc(S(=O)(=O)N2CCc3ccccc3C2)c1OC,–,inactive: -8.13%
O=C(Nc1cc(Br)ccc1O)C1CC(c2ccccc2Cl)=NO1 (configuration not stated),"inconclusive [inhibitor, single point]",–
CC1(C(=O)NS(=O)(=O)C2CC2)CCCN(C(=O)c2ccco2)C1 (configuration not stated),"inconclusive [inhibitor, partial curve, poor fit]",–
O=C(CCN1C(=O)c2ccccc2S1(=O)=O)NCc1ccccc1Cl,–,inactive: -27.9%
O=C(NC1CCCC1)c1ccc2c(c1)N(Cc1ccccc1)CCS2,"inconclusive [inhibitor, single point]",–
CC(C(=O)NCc1ccccc1)n1ccc2cc(S(=O)(=O)N3CCCC3)ccc21 (configuration not stated),"inconclusive [inhibitor, single point]",–
CCOc1ccccc1CNC(=O)CCc1cn(C)c2ccccc12,"inconclusive [inhibitor, single point]",–
Cc1nc(SCC(=O)N2CCOCC2)c2c(C)c(C)sc2n1,–,inactive: 4.24%
Cc1ccc(O)c(NC(=O)c2noc3c2CCc2ccccc2-3)c1,"inconclusive [inhibitor, partial curve]",–
O=C(Cn1cnc2ccccc21)NCc1ccccc1,"inconclusive [inhibitor, partial curve]",–
CN1CCN(NC(=O)Nc2ccc(Br)cc2)CC1,–,inactive: -4.59%
O=C(Nc1cccc(Cl)c1)N1N=CCC1c1ccccc1 (configuration not stated),–,inactive: 7.85%
CCSC1=NC2(CCN(C(=O)NC3CCCCC3)CC2)N=C1c1ccc(OC)cc1,"inconclusive [inhibitor, partial curve]",–
Cc1onc(-c2c(Cl)cccc2Cl)c1C(=O)N1CCc2ccccc2C1,"inconclusive [inhibitor, single point]",–
CCCCn1c(SC(C)C(=O)NCC2CCCO2)nc2cc(C(=O)OC)ccc2c1=O (configuration not stated),"inconclusive [inhibitor, partial curve]",–
CCN1CCN(CCCNC(=O)CN2C(=O)c3cccnc3Oc3ccc(Cl)cc32)CC1,–,inactive: -11.2%
Cc1ccc(C(=O)CC2(O)C(=O)N(CCc3ccccc3)c3ccc(Br)cc32)cc1 (configuration not stated),"inconclusive [inhibitor, single point]",–
Cc1cccc(NC(=S)NC2CCCC2)c1C,–,inactive: 0.729%
CC1(C)CC2CC(C)(CN2C(=O)C23CCC(C)(C(=O)O2)C3(C)C)C1 (configuration not stated),–,inconclusive: -30.7% [inhibitor]
Cc1ccccc1N=C1c2cc([N+](=O)[O-])ccc2-c2ncccc21,"inconclusive [inhibitor, single point]",–
Cc1nc(-c2ccccn2)nc(SCC(=O)c2ccccc2)c1Cl,"inconclusive [inhibitor, single point]",–
COc1cc(C)ccc1OCc1cc(C(=O)N(Cc2c(C)nn(C)c2C)C2CC2)no1,"inconclusive [inhibitor, single point]",–

SMILES,Potency,"activity change, negative = growth inhibition"
CCOC(=O)C1C(=O)CC(C)(O)C(C(=O)OCC)C1c1ccc([N+](=O)[O-])cc1 (configuration not stated),–,inactive: -18.1%
O=C(NCc1ccc(F)cc1)c1cccc(S(=O)(=O)N2CCOCC2)c1,–,inactive: 1.62%
O=C(NC1CCCC1)C(c1ccncc1)N(C(=O)Cc1cccs1)c1ccc(F)cc1 (configuration not stated),–,inactive: -18.8%
CCN(CC(=O)NCc1cccs1)C(=O)CCCOc1ccc(C(C)(C)C)cc1,"inconclusive [inhibitor, single point]",–
Cc1c(C(=O)NC(C)(C)CO)sc2ncnc(NCCN(C)C)c12,–,inactive: 11.6% [at 9.04 µM]
CS(=O)(=O)c1ccc(Cl)c(NC(=O)COC(=O)c2cccc(S(=O)(=O)N3CCCC3)c2)c1,–,inactive: -20.5%
CCOC(=O)c1ccc(NC(=O)CSc2nc3c(c(=O)n2-c2ccccc2OC)SCC3)cc1,"inconclusive [inhibitor, partial curve, poor fit]",–
COc1ccc(-c2cc(=O)oc3c(C)c(OCC(=O)N(C)C)ccc23)cc1,"inconclusive [inhibitor, partial curve]",–
COC(=O)C1=C(C)Nc2sc(C(N)=O)c(N)c2C1c1ccncc1 (configuration not stated),"inconclusive [inhibitor, single point]",–
O=C(CC12CC3CC(CC(C3)C1)C2)N1CCCC1,–,inconclusive: -31.9% [inhibitor]
CCN(CC)C(=O)CSc1nc2sc3c(c2c(=O)n1CCOC)CCC3,–,inactive: 9.83%
COc1ccccc1CNc1ncccn1,–,inactive: 23.3%
O=C(Nc1cccc(O)c1)c1ccc([N+](=O)[O-])cc1Cl,active: 14.6 µM,–
O=C(COC(=O)COc1ccc2c(c1)CCC2)Nc1ccccc1C(F)(F)F,"inconclusive [inhibitor, single point]",–
COCCNC(=O)CN1CCN(C(c2ccccc2)c2ccccc2)CC1,"inconclusive [inhibitor, full curve, poor fit]",–
O=C1CSc2ccc(C(=O)NCC(c3ccco3)N3CCCCC3)cc2N1 (configuration not stated),–,inactive: -15.7%
CCn1c2ccccc2c2cc(Nc3cc(C)nc4ncnn34)ccc21,active: 0.92 µM,–
CC(=O)Nc1ccc(Oc2ccc([N+](=O)[O-])cc2Cl)cc1,active: 10.3 µM,–
O=C1CCc2cc(S(=O)(=O)NCc3ccccc3Cl)ccc2N1,–,inactive: -28.8%
O=C(Nc1nc2ccc(S(=O)(=O)N3CCCCC3)cc2s1)C1CCCO1 (configuration not stated),"inconclusive [inhibitor, single point]",–
COCCNC(=O)/C(C#N)=C/c1cc(C)n(C2CCCCC2)c1C,"inconclusive [inhibitor, single point]",–
C=CCn1c(SCC(=O)N2CCCCCC2)nc2ccccc2c1=O,"inconclusive [inhibitor, single point]",–
COc1cc(/C=C(/C#N)c2ccccc2F)ccc1OCc1ccccc1,active: 16.4 µM,–
COc1ccc(NC(=O)Cn2c(=O)n(Cc3ccccc3Cl)c(=O)c3cc(OC)c(OC)cc32)cc1,"inconclusive [inhibitor, full curve]",–

# — PubChem BioAssay AID686979 (National Center for Advancing Translational Sciences (NCATS), 2013)
